Measured values from paper PMC6919601, “Identification of Plasmodium dipeptidyl aminopeptidase allosteric inhibitors by high throughput screening” (PLoS ONE, 2019).
The campaign covered roughly 110,000 compounds. About 230 (0.21%) showed an effect of 50% or more. The list shows a part of the results.

Target: DPAP1 (Plasmodium falciparum, UniProt Q8IIJ9)
Assay: primary screen, percent inhibition; read by cleavage of a fluorogenic dipeptide substrate; higher = more effect of the substance
Design: species or system P. falciparum D10 trophozoite lysates; single well
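Further: 30 min substrate incubation versus DMSO and 10 µM JCP410 controls.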

DPAP1, sequence (Q8IIJ9 whole entry, looked up): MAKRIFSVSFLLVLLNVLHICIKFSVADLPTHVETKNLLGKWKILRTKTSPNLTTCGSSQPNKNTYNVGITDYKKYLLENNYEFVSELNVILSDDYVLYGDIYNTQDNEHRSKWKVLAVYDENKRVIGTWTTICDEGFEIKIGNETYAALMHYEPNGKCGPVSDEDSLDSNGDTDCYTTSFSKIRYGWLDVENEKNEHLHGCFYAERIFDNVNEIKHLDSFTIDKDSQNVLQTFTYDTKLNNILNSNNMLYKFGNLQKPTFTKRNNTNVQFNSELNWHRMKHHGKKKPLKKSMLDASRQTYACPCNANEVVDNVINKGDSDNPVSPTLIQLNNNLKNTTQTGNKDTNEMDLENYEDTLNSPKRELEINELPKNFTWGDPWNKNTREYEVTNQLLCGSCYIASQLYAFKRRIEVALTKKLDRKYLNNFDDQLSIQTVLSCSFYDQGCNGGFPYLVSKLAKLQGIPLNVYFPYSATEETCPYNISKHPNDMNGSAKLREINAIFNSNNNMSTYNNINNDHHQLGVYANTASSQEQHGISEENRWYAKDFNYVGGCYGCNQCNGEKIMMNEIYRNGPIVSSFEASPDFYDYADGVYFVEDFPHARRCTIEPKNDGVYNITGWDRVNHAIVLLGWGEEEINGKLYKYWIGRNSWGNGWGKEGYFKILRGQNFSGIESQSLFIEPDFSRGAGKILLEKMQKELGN

Point of comparison: O=C(CN1CCOCC1)N1N=C(c2ccc(Cl)cc2)CC1c1ccco1 (stereo not drawn), “% Inhibition @ 10 uM” value -4.51%. Against it:
- CCCCn1c(NCc2cccs2)nc2ccccc21 — higher, 3.93%
- Cc1nc2c(c(C)nn2-c2ccccc2)c(C)c1CCC(=O)NCCCOC(C)C — higher, -2.45%
- O=C(Nc1cccc(Oc2ccccc2)c1)C1CCN(S(=O)(=O)c2cccs2)CC1 — higher, 1.28%
- CCC(C)NC(=O)c1ccc(CSCc2ccc(Cl)cc2)o1 (stereo not drawn) — higher, -1.34%
- Cc1cccc(N2CCN(C(=O)c3ccc4c(c3)OCO4)CC2)c1C — higher, 1.4%
- O=C(/C=C/c1ccccc1)Nc1nc[nH]n1 — higher, -1.25%
- COc1cc(C2N(c3ccccn3)C(=O)C3CCCN32)cc(OC)c1OC (stereo not drawn) — higher, -2.29%
- COc1ccccc1C(=O)Nc1ccc2oc(-c3cccc(F)c3)nc2c1 — higher, -2.03%
- CC1CCN(S(=O)(=O)c2ccc(NS(=O)(=O)c3cc(Cl)ccc3Cl)cc2)CC1 — higher, 2.79%
- CCN(CC)C(=O)C1CCCN(Cc2ccoc2)C1 (stereo not drawn) — higher, 0.708%
- CC1NC2(CCCCC2)CC(C)(C)c2ccc([N+](=O)[O-])cc21 (stereo not drawn) — higher, -0.274%
- COCc1cc(C)nc2sc3c(c12)NC(c1ccccc1)NC3=O (stereo not drawn) — higher, -0.703%
- CCCCCn1c(C)nc2cc(C)c(C)cc21 — lower, -4.71%
- CCCCN(C)Cc1ccc(C(=O)OC)cc1 — higher, -3.15%
- Cc1ccc(C)c(NC(=O)CN(c2ccccc2C)S(C)(=O)=O)c1 — higher, -2.44%
- Cc1nc2c3ccccc3n3c(CCCC(=O)NCCc4c[nH]c5ccccc45)nnc3n2n1 — higher, 5.09%
- COc1ccc(CN2CCN(c3ccccc3Cl)CC2)cc1O — lower, -7.33%
- Cc1ccc(NC(=O)COc2cccc(C3C4=C(CCCC4=O)OC4=C3C(=O)CCC4)c2)cc1Cl — higher, 1.17%
- O=C1c2ccc(Br)cc2C(=O)N1CNc1ccc(Cl)cc1 — higher, -3.78%
- COCCNC(=O)Cn1nnc2sc3c(c2c1=O)CCC(C)C3 (stereo not drawn) — higher, -2.71%
- Cc1onc(-c2c(Cl)cccc2Cl)c1C(=O)Nc1ccc2c(c1)NC(=O)CS2 — lower, -18.8%
- Cc1ccccc1CSc1nc(=O)c2c(n1C)NC(=O)CC2c1ccc(OC(C)C)cc1 (stereo not drawn) — lower, -4.94%
- Cc1cccc(OCCSc2nc3ccccc3n2CCO)c1 — higher, 0.214%
- COc1ccc(CCNc2nc3c(c(=O)n(C)c(=O)n3C)n2C)cc1OC — higher, 3.35%
- O=C1N/C(=C/c2ccc(O)c(Cl)c2)C(=O)N1c1cccc(Cl)c1 — higher, -0.333%
- CNc1ccc([N+](=O)[O-])c2cccnc12 — higher, -1.64%
- Cc1ccc(Cc2cncc(O)c2)cc1 — higher, 2.94%
- Cc1ccc(Cl)cc1N(CC(=O)Nc1ccc(F)cc1)S(C)(=O)=O — lower, -4.65%
- Cc1ccsc1CN1CCCCC1CO (stereo not drawn) — higher, 1.83%
- N#C/C(=C\c1cccs1)c1nc2ccccc2[nH]1 — higher, -0.142%
- CC(C)/N=C(\N)CCn1cnc2c1c(=O)n(C)c(=O)n2C — higher, 4.84%
- O[C@H]1CC[C@H](NC2CCN(Cc3ccccc3)CC2)CC1 — higher, -1.81%
- COc1ccc(CNCCc2c[nH]c3ccccc23)c(OC)c1C — higher, -1.6%
- COc1ccc(C(=O)CC(=O)c2ccc(OC)c(OC)c2)c(O)c1 — higher, 4.74%
- OCCN1CCN(C2CCSC2)CC1 (stereo not drawn) — higher, -3.6%
- CCCCN(C)CCNC(=O)CSCc1ccc(C)cc1 — higher, -2.99%
- N#Cc1sc2nc(-c3cccnc3)ccc2c1N — higher, -0.261%
- COc1ccc(CCN2C(=N)SC3CS(=O)(=O)CC32)cc1 (stereo not drawn) — lower, -4.75%
- COc1ccc(C2C3=C(O)CC(C)(C)CC3=Nc3ncnn32)cc1Br (stereo not drawn) — higher, 1.73%
- COc1ccccc1-c1c(C)nn2c(NCCc3ccc(C)cc3)cc(C)nc12 — higher, -3.93%
- COc1ccc(C2C(C#N)=C(N)N(c3ccccc3Cl)C3=C2C(=O)CCC3)cc1O (stereo not drawn) — lower, -4.76%
- Cc1ccccc1OCCCn1c(CCCO)nc2ccccc21 — higher, 1.62%
- Cc1sc2ncn(CC(=O)N3CCOCC3)c(=O)c2c1S(=O)(=O)N1CC(C)CC(C)C1 (stereo not drawn) — higher, 1.5%
- CC1CCCC(NS(=O)(=O)c2ccc(CCN3C(=O)c4cccnc4C3=O)cc2)C1C (stereo not drawn) — lower, -8.4%
- CP(=O)(O)c1nccn1-c1ccc(Cl)nn1 — higher, 7.56%
- COc1ccc(NC(=O)c2ccc(Cl)c(Cl)c2)cc1 — higher, 3.04%
- COc1cccc(C2NC(=O)NC(C)=C2C(=O)c2ccccc2)c1 (stereo not drawn) — higher, -2.15%
- CC(C)N(Cc1nc(-c2ccccc2)no1)C(=O)C(C)(C)C — lower, -5.91%
- CN1C(=O)c2ccc(C(=O)NCc3cccnc3)cc2C1=O — higher, 0.161%
- CCOC(=O)c1cc(-c2ccc(C)cc2)n(CCC(=O)Nc2cccc(C)n2)c1C — higher, 0.0579%
